# Source: PubChem BioAssay AID488969 (Vanderbilt High Throughput Screening Facility, 2010)
# The full ranking holds about 110,000 compounds; the median of “z-score” is about -0.1, and the highest 2% start at about 2. This is one part of the list. Activity calls are given as the source filed them.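 Rule for the calls: active = z-score in the third read window above 3 or below -3; inactive = the rest.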
# Target: Metabotropic glutamate receptor 8 (Rattus norvegicus) (UniProt P70579)
# Assay: mGluR8 Gi/Go-coupled signaling modulation – cell-based, rat, thallium flux, HTS, primary screen (AID 488969)
# Details: HEK293 rat mGluR8, GIRK (G protein-gated inwardly rectifying potassium channel) thallium flux, FluoZin2; at 10 µM; stronger effect = higher value; submaximal glutamate (EC20) added with thallium
# Chain of UniProt P70579 (P70579 whole entry, looked up): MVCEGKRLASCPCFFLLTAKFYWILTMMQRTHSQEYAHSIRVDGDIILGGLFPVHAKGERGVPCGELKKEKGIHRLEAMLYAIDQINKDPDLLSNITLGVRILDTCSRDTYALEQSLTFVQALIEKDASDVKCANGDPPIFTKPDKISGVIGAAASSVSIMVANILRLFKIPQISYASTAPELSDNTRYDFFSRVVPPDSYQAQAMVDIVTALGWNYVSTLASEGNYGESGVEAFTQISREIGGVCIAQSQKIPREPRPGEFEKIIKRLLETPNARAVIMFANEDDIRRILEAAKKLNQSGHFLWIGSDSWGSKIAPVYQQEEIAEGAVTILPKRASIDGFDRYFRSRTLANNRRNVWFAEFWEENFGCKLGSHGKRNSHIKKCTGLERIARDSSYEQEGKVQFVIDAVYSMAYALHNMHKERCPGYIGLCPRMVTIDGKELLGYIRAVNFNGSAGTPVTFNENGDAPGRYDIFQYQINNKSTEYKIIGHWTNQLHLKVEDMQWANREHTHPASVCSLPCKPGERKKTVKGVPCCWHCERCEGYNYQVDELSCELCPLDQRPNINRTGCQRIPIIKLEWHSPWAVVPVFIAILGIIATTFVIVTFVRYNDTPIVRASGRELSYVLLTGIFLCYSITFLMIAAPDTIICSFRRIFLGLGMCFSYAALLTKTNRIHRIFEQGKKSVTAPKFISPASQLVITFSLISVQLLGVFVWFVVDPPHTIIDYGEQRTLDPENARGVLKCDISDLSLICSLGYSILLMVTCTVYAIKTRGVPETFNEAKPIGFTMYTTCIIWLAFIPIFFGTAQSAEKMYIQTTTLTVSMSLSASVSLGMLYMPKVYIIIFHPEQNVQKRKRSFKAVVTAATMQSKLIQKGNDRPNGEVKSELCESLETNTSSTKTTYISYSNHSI
row,SMILES,z-score
1,COc1ccc(CCNC(=O)Cc2ccc(OCc3ccccc3)c(OC)c2[N+](=O)[O-])cc1OCc1ccccc1,-0.238
2,C/C(=N\OCC(=O)NCC(F)(F)F)c1cc2ccccc2o1,-0.212
3,CCOc1ccc(S(=O)(=O)Nc2nc3ccccc3nc2N2CCN(C)CC2)cc1,-0.208
4,CC(C)NC(=O)c1cc(=O)n(C)c(=O)n1C,-0.189
5,O=C(CSc1nc(-c2ccco2)cc(C(F)(F)F)n1)Nc1ccc(C(=O)N2CCCCC2)cc1,-0.128
6,O=[N+]([O-])c1ccc(Oc2ccc(F)cc2)c2ccncc12,-0.992
7,Clc1ccc(COn2c(-c3ccccc3)nc3ccccc32)cc1,-0.356
8,Cc1occc1C(=O)NC(C)c1ccc2c(c1)OCO2 (centres undefined),-0.214
9,CCOc1cccc(C(=O)Nc2nc(-c3ccc(S(=O)(=O)N4CCOCC4)cc3)cs2)c1,-0.123
10,O=C(NCC1CCCO1)c1cc(-c2ccncc2)nc2ccc(S(=O)(=O)N3CCOCC3)cc12 (centres undefined),0.221
11,CCCN(CCC)c1nc(Cl)nc(NCc2ccco2)n1,0.493
12,O=C(/C=C/c1ccc(Cl)cc1Cl)Nc1ccc(CN2CCOCC2)cc1,0.397
13,COc1ccc(CC(=O)Nc2ccc(-c3nnc(-c4ccccc4)o3)cc2)cc1OC,-0.886
14,O=C1Nc2ccccc2OC1CC(=O)N1CCOCC1 (centres undefined),1.04
15,N#C/C(=C\c1cccn1-c1ccccc1)C(=O)NC1CCCCC1,-0.217
16,CCOC(=O)C(Sc1ncc(C#N)c(N)n1)C(C)C (centres undefined),-0.396
17,CCOC(=O)N1CCN(C(=O)c2ccc3nc(C)sc3c2)CC1,-0.0643
18,COc1ccccc1C(=O)N/C(=C/c1ccc(Br)cc1)C(=O)NCCO,-0.435
19,CCc1ccc2[nH]c(=O)c(CN(Cc3ccccc3OC)Cc3nnnn3Cc3ccco3)cc2c1,-0.963
20,COC(=O)c1c(-c2cccc(C)c2)csc1N,-0.0967
21,CN(c1ccccc1C(=O)Nc1ccc(S(=O)(=O)N2CCOCC2)cc1)S(=O)(=O)c1ccccc1,-0.363
22,COC(=O)c1ccc(C(=O)Nc2cc(Cl)ccc2Cl)cc1NC(=O)c1ccccc1C,0.0158

row,SMILES,z-score
1,CC1(C)Oc2ccc3ccc(=O)oc3c2/C(=C/N)C1=O,0.0917
2,Nc1nc2ccc(S(=O)(=O)c3ccc4nc(N)sc4c3)cc2s1,-0.885
3,COc1ccc(/C=C(/CC(=O)Nc2ccccc2)c2nc3ccccc3s2)cc1,-0.206
4,COC(=O)c1[nH]c(C)c(/C(O)=C2\C(=O)C(=O)N(CCN3CCOCC3)C2c2cccnc2)c1C (centres undefined),0.192
5,CCN(CC)C(=O)c1sc(NC(=O)c2cccnc2)c(C(=O)OC)c1C,-0.202
6,O=C(OCCN=C1NS(=O)(=O)c2ccccc21)c1cccnc1,0.1
7,Cc1nn2c(C)nc3sc4c(c3c2nc1=O)CC(C)(C)OC4,-0.0171
8,O=[N+]([O-])c1ccc(N2CCCC2)cc1NCc1ccccc1,-0.6
9,CC1CCN(Cc2ccc(-c3nn[nH]n3)cc2)CC1,0.274
10,COc1ccc(Cc2nc(N)nc(N)n2)cc1,-0.931
11,N#C/C(=N\Nc1ccc(S(=O)(=O)N2CCCCC2)cc1)C(N)=S,0.742
12,CCN(CC)c1ccc(C=N/C(C#N)=C(\N)C#N)cc1,-0.226
13,CC(=O)NC1(C(Cl)(Cl)Cl)Oc2ccccc2O1,-0.0777
14,N=c1sccn1CC(=O)Nc1cc(Cl)ccc1Oc1ccccc1,1.02
15,CC1CCN(C(=O)c2ccc3c(c2NCCO)C(=O)c2ccccc2C3=O)CC1,-0.206
16,COc1cc(S(=O)(=O)N2CCOCC2)ccc1NC(=O)COC(=O)C12CC3CC(CC(C3)C1)C2,-0.0192
17,CCOC(=O)C1=C(Cn2cnc3ccccc32)NC(=O)NC1c1ccc(Cl)cc1 (centres undefined),-0.225
18,COC(=O)c1ccc(COc2ccccc2/C=N/NS(=O)(=O)c2ccc(C)cc2)cc1,0.41
19,O=C(Nc1ccncc1)c1ccc2c(c1)C(=O)N(CC1CCCO1)C2=O (centres undefined),-0.193
20,O=C1N=C(N2CCCC2)S/C1=C\c1cccc(Br)c1,-0.485
21,Cc1ccc(NS(=O)(=O)c2ccc(Cl)c(C(=O)O)c2)cc1S(=O)(=O)N1CCOCC1,-0.00682
22,CCn1c2ccccc2c2nn(C)c(=N)nc21,0.551

row,SMILES,z-score
1,Cc1ccc(NC(=O)NCC(c2cccnc2)N2CCOCC2)cc1 (centres undefined),-0.0311
2,COc1ccccc1-c1c(C)nn2c(C)c(C(C)=O)cnc12,0.0641
3,COC(=O)C1=C(C)N(C)C(=O)NC1c1cc(Cl)cc(Cl)c1OC (centres undefined),-0.602
4,COC(=O)c1cc2sc(Cl)cc2n1Cc1nc(-c2ccccc2)oc1C,0.434
5,CC(=O)NC(CCS(C)(=O)=O)C(=O)Nc1cccc(C(C)=O)c1 (centres undefined),-0.0267
6,Cc1ccc2cc(CN(CC3CCCO3)S(=O)(=O)c3c(C)ccc4nsnc34)c(=O)[nH]c2c1 (centres undefined),-0.154
7,S=c1[nH]nc(-c2cccnc2)n1/N=C/C=C/c1ccccc1,0.244
8,O=C(NCc1cccs1)C1CCCN(S(=O)(=O)c2cccc3cccnc23)C1 (centres undefined),-0.302
9,Cc1cccc(/C(N)=N/OC(=O)c2ccc(F)cc2)c1,0.686
10,O=C(Nc1ccc(N2CCOCC2)c(Cl)c1)c1cc(F)c(F)cc1Cl,0.879
11,COc1ccc(CCNC2CC(=O)N(CCc3ccccc3)C2=O)cc1OC (centres undefined),0.178
12,c1ccc(-c2nc3c(ccc4ccccc43)[nH]2)nc1,-1.42
13,CCOC(=O)C1=C(CSc2nc(-c3ccccc3)ccc2C#N)OC(N)=C(C#N)C1c1ccc(OC)cc1 (centres undefined),0.0604
14,CCOCCc1nnc(NC(=O)c2cccc(F)c2)s1,-0.243
15,COc1ccc2c(OC)cc(-c3ccccc3)nc2c1,-1.03
16,CN(C)CCNC(=S)Nc1cccc(Cl)c1,0.0585
17,Cc1cc(N2C(=O)C3C4C=CC(C4)C3C2=O)no1 (centres undefined),0.639
18,CC(C)(C)NC(=O)c1cc(Cl)ccc1[N+](=O)[O-],-0.172
19,O=C(N/N=C/C=C/c1ccco1)/C(=C/c1ccccc1)NC(=O)c1ccccc1,-0.138
20,CC1(C)CN(c2ccccc2)N(C(=O)c2ccc(F)cc2)C1=O,-0.346
21,Cc1ccc(N2C(=O)CC(N(CCc3ccccc3)C(=S)Nc3ccc(N(C)C)cc3)C2=O)cc1 (centres undefined),-0.0866
22,Cc1nn(-c2cccc(Cl)c2)c2c1C(c1cccnc1)C(C#N)=C(N)O2 (centres undefined),0.0248

row,SMILES,z-score
1,COC1(C)CC2C(CC1OC(=O)c1cc([N+](=O)[O-])cc([N+](=O)[O-])c1)C2(C)C (centres undefined),0.0533
2,O=C(CCc1n[nH]c(=O)[nH]c1=O)N1CCOCC1,-0.0563
3,CC1CCN(S(=O)(=O)N2CCC(C(=O)NCCN3CCOCC3)CC2)CC1,-0.151
4,CC(C)C(=O)Nc1cccc(NC(=O)c2cccnc2)c1,0.0323
5,Cc1ccc(S(=O)(=O)c2nc(S(C)(=O)=O)sc2NCC2CCCO2)cc1 (centres undefined),0.195
6,CCCCOC(=O)Cc1c(O)c2ccccc2[nH]c1=O,0.389
7,CCc1cccc2c(C(=O)COC(=O)c3cccc(S(=O)(=O)N(C)C4CCCCC4)c3)c[nH]c12,0.724
8,CCn1c(SCC(=O)N2CCN(c3ccccc3)CC2)nnc1-c1cc2cc(Cl)ccc2o1,-0.00365
9,O=[N+]([O-])c1cc(Br)c(O)c(/C=N/Nc2nnnn2-c2cccc3ccccc23)c1,-1
10,Cc1ccc(S(=O)(=O)NCC(=O)OCC(=O)Nc2ccccc2OC(F)F)cc1,-0.526
11,Cc1nc(C)n(CC(O)COc2ccc3c(c2)CCC3)n1 (centres undefined),0.329
12,Cc1ccc(NC(=O)/C(=C/c2cccs2)NC(=O)c2ccco2)cc1,-0.139
13,COC(=O)c1ccc(C2C(Oc3ccc(OC)cc3)C(=O)N2CCc2ccc(OC)c(OC)c2)cc1 (centres undefined),-0.234
14,CC(Cc1cccs1)NC(=O)Nc1cccc(Cl)c1 (centres undefined),-0.475
15,O=C(CC1Oc2ccccc2NC1=O)NCCCN1CCOCC1 (centres undefined),-0.213
16,O=C(CNC(c1ccccc1)c1ccccc1)Nc1ccc(F)cc1,-0.356
17,COc1ccc2c(c1)[nH]c1c(=O)n(CCN3CCCC3)cnc12,0.615
18,Cn1c(=O)c2cn3ncccc3c2n(C)c1=O,-0.362
19,CCOC(=O)CN1CC23C=CC(O2)C(C(=O)NCCc2ccccc2)C3C1=O (centres undefined),0.00167
20,Cc1cc(Nc2ccc3ccccc3c2)n2ncnc2n1,-0.324
21,N#Cc1c(-c2ccccc2)nc(-c2ccccc2)nc1N1CCOCC1,0.64
22,Cc1ccc(N=Cc2ccc(O)cc2O)cc1F,-0.104

row,SMILES,z-score
1,CCCNC(=O)c1ccc(CN2CCc3ccccc3C2)cc1,-0.12
2,CCCCNC(=O)Cc1coc2ccc3ccccc3c12,0.454
3,COc1cc(NC2c3ccccc3C(=O)N2c2ccc(C)cn2)cc(OC)c1OC (centres undefined),-0.25
4,CC/C(=C\C(=O)c1ccncc1)Nc1ccc(Br)cc1,-0.23
5,Cc1ccccc1OCC(=O)Nc1ccc(C(N)=O)cc1,-0.383
6,CC(C)(C)C(=O)CSc1nnc(-c2cccs2)n1CC1CCCO1 (centres undefined),-0.131
7,CCOc1cc(C2NC(=O)NC(C)=C2C(C)=O)cc(Cl)c1OCC(=O)O (centres undefined),0.0829
8,COCCNC(=S)c1ccc(OC)cc1,0.239
9,Cc1ccc(-c2nnc3n2N=C(c2ccccc2Br)CS3)cc1,-0.151
10,COc1ccc(CCNc2nc(C)nc3c2oc2ccccc23)cc1OC,-0.784
11,COc1ccc(NC(C)=O)cc1NC(=O)CN1CCN(CC(=O)Nc2ccc(Cl)cc2)CC1,-0.613
12,CCOc1ccc(NCc2nnc(SCC(=O)Nc3cc(C)on3)n2-c2ccccc2OC)cc1,-0.159
13,CCN(CC)S(=O)(=O)c1c(Br)cc(C)cc1Br,0.202
14,O=c1c2ccccc2nc(SCc2cn3ccsc3n2)n1-c1ccc(F)cc1,active: -3.79
15,Cc1csc(NC(=O)CSc2nnc(NC(=O)C3CC(=O)N(c4ccccc4)C3)s2)n1 (centres undefined),-0.351
16,c1ccc(N2CCN(c3nc4ccccc4n4cnnc34)CC2)cc1,-0.281
17,O=C(CO/N=C/c1ccccc1O)N1CCc2ccccc21,-0.0476
18,CC(=O)c1cccc(NC(=S)NC2CC2)c1,-0.023
19,CCCC(=O)OCC(=O)Nc1ccccc1Sc1ccccc1,-0.604
20,Cc1ccccc1OCc1n[nH]c(=S)n1Cc1ccccc1,0.94
21,Clc1ccc2c(c1)C1=C(C(c3ccncc3)O2)C(c2ccc(Br)cc2)n2ncnc2N1 (centres undefined),-0.206
